# Reference: PubChem BioAssay AID434955 (Southern Research Specialized Biocontainment Screening …, 2010)
# The other results are listed elsewhere or left out. These are further read-outs of the screen, such as a control signal, another cell line or another target. No call is given for them. Most of these compounds were active or inconclusive in the main read-out, so they are no random draw.
# Experiment: beta-lactam sensitization of Mtb H37Rv, H37Rv (AID 434955);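 also: growth measured after seven days incubation then overnight dye step; 0% = bacteria only wells and 100% = bacteria with antibiotic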
# Settings: M. tuberculosis H37Rv growth with meropenem, percent inhibition; measured here: primary screen without meropenem; at 25 µM
row,Compound,inhibition
1,Cc1nc2sc3c(c2c2nnc(SCC(=O)NCc4ccco4)n12)CCCC3,25%
2,CCn1c(-c2ccc(-c3ccccc3)cc2)c[nH]c1=S,32.3%
3,O=C(CSc1ccc2nnc(-c3ccccn3)n2n1)Nc1ccc(F)cc1F,3.57%
4,CCc1nc(C(N)=O)c2[nH]c(=O)n(-c3ccc(OC)cc3OC)c2n1,-4.67%
5,COc1ccc(C2/C(=C(\O)c3ccc4c(c3)CC(C)O4)C(=O)C(=O)N2Cc2cccnc2)c(OC)c1 (stereo not drawn),-3.11%
6,COc1ccc(N(C)S(=O)(=O)c2c(C)[nH]c(=O)[nH]c2=O)cc1,1.3%
7,Cc1c(OCC(=O)NCc2cccnc2)ccc2c3c(c(=O)oc12)CCC3,1%
8,Cc1ccc(S(=O)(=O)N2CCOCC2)cc1C(=O)NC1CCCCCC1,-1.88%
9,CC(C)=C1C2CCC1C(C(=O)NCc1ccccc1)C2C(=O)O (stereo not drawn),4.87%
10,CCOc1ccc2[nH]c(=O)c(CN(Cc3ccccc3OC)C(=O)c3ccccc3)cc2c1,-2.14%
11,O=C(NCCCN=C1NS(=O)(=O)c2ccccc21)c1ccncc1,-0.54%
12,Fc1ccccc1OCCSc1nnnn1-c1ccccc1,2.68%
13,Cc1cc(C(=O)NCC2CCCO2)n(-c2ccccc2)n1 (stereo not drawn),-2.35%
14,CC(=NC1CCCC1)c1c(C)[nH]n(-c2nc3ccccc3s2)c1=O,-1.16%
15,O=c1[nH]c(=S)n(C2CC2)c(O)c1C=Nc1cccc(C(F)(F)F)c1,-1.12%
16,C/C(=N\OCC(=O)Nc1nc2ccccc2s1)c1ccccc1,43.2%
17,CCOC(=O)c1sc(NC(=O)c2sc(C)nc2C)nc1C,-6.27%
18,O=C(C[n+]1ccc(-c2ccccc2)cc1)Nc1ccc([N+](=O)[O-])cc1,-3.07%
19,CCOc1ccccc1C(=O)Nc1cccc(-c2ccc3nncn3n2)c1,19%
20,CC(C)(C)c1cc(NC(=O)COC(=O)c2nccnc2N)n(-c2ccccc2)n1,6.57%
21,O=C(COc1ccccc1)Nc1nnc(-c2ccc(F)cc2)o1,4.46%
22,O=C(Nc1cccc(C(=O)NC2CCCC2)c1)c1ccccc1,-1.79%

row,Compound,inhibition
1,O=C(NNS(=O)(=O)c1ccc(Cl)cc1)c1cnn(-c2ccccc2)c1-n1cccc1,-0.33%
2,Cc1ccc(SCc2c(-c3ccccc3)nn(C)c2Cl)cc1,47.1%
3,Cc1ccc(N(O)C(=O)NCCCCNC(=O)N(O)c2ccc(C)cc2)cc1,3.07%
4,Cn1c(C(=O)Nc2ccc3c(c2)OCO3)cc2c(=O)n(C)c3ccccc3c21,-4.06%
5,Cc1nn(-c2ccccc2)c(N2CCCC2)c1/C=C1\N=C(c2ccc(F)cc2)OC1=O,21.9%
6,Cc1nc(S/C(=C\c2ccc(OCc3ccccc3Cl)cc2)C(=O)O)n[nH]1,20.4%
7,O=C(c1cnn2c(C(F)(F)F)cc(-c3ccc(F)cc3)nc12)N1CCc2ccccc2C1,11.5%
8,COc1ccc2c(c1OC)C(=O)N(c1ccc3c(c1)CCC3)C2=O,-3.24%
9,CCc1cc(=O)[nH]c(SCCc2ccccc2)n1,-2.59%
10,CCCCCCn1nc(C(=O)N(CC(C)C)c2c(N)n(CCCC)c(=O)[nH]c2=O)c2ccccc2c1=O,20.6%
11,O=C(Nc1cccc(Cl)c1N1CCOCC1)c1ccc([N+](=O)[O-])o1,6.65%
12,CCc1nn(CC(=O)NCCCN2CCN(C)CC2)c(=O)c2cc3sc(C)cc3n12,3.02%
13,CCNc1oc(-c2ccccc2F)nc1S(=O)(=O)c1ccccc1,3.23%
14,Cc1cc(N2CCC(C(=O)N3CCN(c4cccc(C)c4C)CC3)CC2)n2ncnc2n1,-0.67%
15,O=C(Nc1cc(C(F)(F)F)ccc1N1CCOCC1)C1=NN(c2ccccc2)C(=O)CC1,-0.13%
16,C=CCNCCCOc1ccc(Cl)cc1C(C)(C)C,31.5%
17,Cc1cccc(CN2CCC(n3nccc3NC(=O)c3ccccc3C)CC2)n1,-3.3%
18,Cn1c(=O)c2c(nc(SCCCC#N)n2Cc2ccccc2F)n(C)c1=O,-7.83%
19,COc1ccc(OC)c(C2CC(c3c(-c4ccccc4)c4cc(Cl)ccc4[nH]c3=O)=NN2S(C)(=O)=O)c1 (stereo not drawn),44.4%
20,CN1CCN(S(=O)(=O)c2ccc(Br)s2)CC1,-2.75%
21,COc1ccc(CCNC(=O)c2cccc(NC3=NC4CS(=O)(=O)CC4S3)c2)c(OC)c1 (stereo not drawn),-7.32%
22,COc1ccc(NC(=O)c2cc(C(C)C)on2)cc1OC,-1.96%

row,Compound,inhibition
1,O=C(c1ccoc1)N1CCCC(N2CCN(c3cccc(C(F)(F)F)c3)CC2)C1 (stereo not drawn),8.33%
2,Cc1[nH]c2ccccc2c1Cc1nnc(SCC(N)=O)o1,-7.55%
3,CCOC(=O)c1c(C)n(-c2ccccc2)c2ccc(OCCN(C)C)cc12,35.8%
4,CC1(C(=O)N/N=C/c2cc3c(cc2Br)OCO3)CC1(Br)Br (stereo not drawn),7.12%
5,CCOC(=O)Cc1csc(NC(=O)c2csc3c2CCCC3)n1,1.38%
6,Cc1cccc(/C=N/NC(=O)c2cc(C3CC3)nc3ccccc23)n1,5.21%
7,COc1ccc(CN2CCNC(=O)C2CC(=O)NCC2CCOCC2)c(C)c1C (stereo not drawn),-11.2%
8,COc1ccc(C(C)=O)cc1CSc1nc2ccccc2c(=O)n1-c1cccc(C)c1,-2.49%
9,Cc1ncc(CCl)c2c1OC(C)(C)OC2,43.1%
10,COCCOC(=O)C1=C(N)Oc2c(oc(CO)cc2=O)C1c1c(F)cccc1Cl (stereo not drawn),-8.34%
11,CCCCOc1ccc(C(=O)Oc2cccnc2)cc1,50%
12,O=C(Nc1cc2c(cc1Br)OCCCO2)c1cccnc1,-0.32%
13,Cc1c(C(=O)NCCC2=CCCCC2)sc2ncnc(N3CCCCC3C)c12 (stereo not drawn),30.9%
14,Cc1cc(C)c2nc(-c3ccncc3)cc(C(=O)N3CCN(Cc4ccccc4Cl)CC3)c2c1,96.3%
15,O=C1CCCc2sc3c(c2N1)CCCCC3,9.94%
16,O=C(NCCCn1ccnc1)Nc1ccc(Cl)cc1,0.26%
17,CCCC(=O)Nc1c(C)n[nH]c1C,-7.11%
18,CC1Cc2ccccc2N1C(=O)COC(=O)Cn1cnc2ccccc2c1=O (stereo not drawn),4.7%
19,COc1cccc(-n2c(=O)c3sccc3n(CC(=O)NCC3CCCO3)c2=O)c1 (stereo not drawn),-1.2%
20,CCc1ccc(CNC(=O)c2ccc(OC)c(OC3CCN(C(C)C)CC3)c2)nc1,1.96%
21,CC(/C=C/c1ccco1)=N\NC(=O)c1cc(C)[nH]n1,-10.3%
22,O=C(Nc1ccc(F)cc1)c1cccc(N2C(=O)C3C4C=CC(C5CC45)C3C2=O)c1 (stereo not drawn),-11.6%

row,Compound,inhibition
1,O=C(CCC(=O)Nc1ccccc1)NNC(=O)c1ccco1,24.8%
2,C/C(=N\O)c1c(C)c2ccccc2n1C,-8.32%
3,Cc1ccc(CNC(=O)CCc2nnc3ccc(NCCCN4CCCC4=O)nn23)cc1,-1.3%
4,O=C(NN1C(=O)C2C3C=CC(C3)C2C1=O)c1ccncc1 (stereo not drawn),14.3%
5,Cc1cc(NC(=O)CN2CCN(c3ccccc3O)CC2)no1,-5.52%
6,Cn1c(=O)oc2cc(S(=O)(=O)Nc3ccc(F)cc3)ccc21,-2.73%
7,CCCCNc1nc2ccccc2nc1NS(=O)(=O)c1ccc(F)cc1,-4.75%
8,Cc1cccc(C)c1NC(=O)CS(=O)CC(=O)NC1CCN(Cc2ccccc2)CC1 (stereo not drawn),-3.98%
9,Nc1nc(NCC(=O)O)nc(N2CCCCCC2)c1[N+](=O)[O-],4.12%
10,CC(C)(C)[C@@H]1C=C(C(=O)Nc2ccccc2)O[C@H](OCc2ccc(CO)cc2)C1,13.1%
11,CSc1nc(NS(=O)(=O)c2cc(C)c(Cl)cc2Cl)nn1C,-6.12%
12,COc1ccc(CCN2CC(C(=O)NCc3cnn(C(C)C)c3)CCC2=O)cc1 (stereo not drawn),0.14%
13,Cc1cc(NC(=O)Cn2c(=O)c3c(ncn3CCC(C)C)n(Cc3ccccc3)c2=O)no1,-1.09%
14,Cc1ccc(C(=O)N2CCCC(Nc3ccc(F)cc3)C2)cc1C (stereo not drawn),11%
15,NC(=S)NN=C1c2cc(S(=O)(=O)N3CCOCC3)ccc2-c2ccc(S(=O)(=O)N3CCOCC3)cc21,-4.51%
16,Cc1ccsc1C(=O)N1CCCC(N(C)Cc2ccccc2)C1 (stereo not drawn),-8.2%
17,COc1ccc(NC(=O)c2cc(Br)ccc2Cl)c(OC)c1,42.9%
18,O=C(NC(=S)NCCc1ccccc1)c1cccc(Cl)c1,13.8%
19,Clc1ccc(Cn2cc(/C=N/n3cnnc3)c3ccccc32)cc1,23.6%
20,Cc1ccc(C(=O)C[n+]2cc(-c3ccccc3)n3c2CCCCC3)cc1,2.54%
21,COc1cc2[nH]c(=O)n(CCC(=O)N3CCN(c4cc(Cl)ccc4C)CC3)c(=O)c2cc1OC,-5.44%
22,CC(=O)c1cccc(CN2CCC(n3nccc3NC(=O)CCc3ccccc3)CC2)c1,-0.03%

row,Compound,inhibition
1,CC(Cc1cnccn1)NCc1c(C(=O)N2CCCCCCC2)nc2ccc(Cl)cn12 (stereo not drawn),-7.4%
2,c1ccc2c(c1)OCC(c1nn3cnnc3s1)O2 (stereo not drawn),-5.47%
3,Cn1c(/C=C/c2ccc(Cl)cc2)nc2ccccc2c1=O,37.4%
4,Cc1ccc(-n2ncc3c(=O)n(CC#N)cnc32)cc1C,29.8%
5,Cc1oc2ccc(OC(C(=O)O)c3ccccc3)cc2c1C(=O)O (stereo not drawn),11.1%
6,CC1CCCC(N2CCN(C(=O)c3ccc(F)cc3)CC2)C1 (stereo not drawn),-2.5%
7,CCOc1ccc(C(=O)NCC(=O)NCCOc2ccc(C)cc2)cc1,5.54%
8,CCOC(=O)c1[nH]c2ccc(F)cc2c1NC(=O)CN1CCc2cc(OC)c(OC)cc2C1,11.2%
9,Cc1cc(C)nc(SCC(=O)Nc2ccccc2[N+](=O)[O-])n1,54.2%
10,CCOc1cc(S(=O)(=O)NCc2ccc(OC)cc2)c(OCC)cc1-n1cnnn1,2.6%
11,O=C(N/N=C/c1cccc(OCc2ccccc2)c1)c1ccc(Br)o1,64.3%
12,c1ccc(-n2ncc3c(NCCCN4CCOCC4)ncnc32)cc1,3.87%
13,COc1ccc(OCC(=O)N2CCN(C(=O)COc3ccc(Br)cc3)CC2)cc1,-5.27%
14,CN(/N=C/c1ccc(O)cc1O)c1nc(-c2ccccc2)cc(-c2ccccc2)n1,-9.65%
15,Cn1cccc1Cc1nnc(SCC(N)=O)n1-c1ccc(F)cc1,-4.56%
16,O=C(NCCCN1CCCC1=O)Nc1ccc([N+](=O)[O-])cc1,3.37%
17,COCCNC(=S)N/N=C(\C)c1cccc(OC)c1,5.82%
18,CCC(C(=O)Nc1ccccc1N1CCCC1)c1ccccc1 (stereo not drawn),19%
19,CC[C@@](C)(NS(=O)(=O)OCC(Cl)(Cl)Cl)c1ccccc1,30.9%
20,Clc1cccc2sc(N3CCOCC3)nc12,-3.37%
